Among the data in the supplement of paper PMC10369915 are enrichment score values, retold here.

The other results are listed elsewhere or left out. No stated cut-off is given here; in the data, active = 3.2 or more and inactive = the rest. The signal is at background level for most entries.

To fix the notation:
B1: HADHA_Y343_L342P (peptide)
chain: ALMGPYHGQVL
B2: HADHB_Y244_R247H (peptide)
chain: LEQDEYALHSH
B3: GSTP1_Y112 (peptide)
chain: LIYTNYEAGKD
B4: GSR_Y371_G374A (peptide)
chain: NVKGIYAVADV
B5: GSTP1_Y112_A114V (peptide)
chain: LIYTNYEVGKD
B6: H6PD_Y449_YF (peptide)
chain: SDFFAYSPVRE
B7: GRIN3A_Y831_D835N (peptide)
chain: PDGVEYLKNNP
B8: GRM3_Y480_YF (peptide)
chain: GGKFSYLKVGH
B9: GUCY2C_Y839 (peptide)
chain: TTICKYSTPME
B10: GUCY2D_Y656 (peptide)
chain: IKGIRYLHHRG
B11: GRIN2D_Y736 (peptide)
chain: SYMVRYNQPRV
B12: HADHA_Y283_V282D (peptide)
chain: VRQQDYKKVEE
B13: GRM3_Y754_T758M (peptide)
chain: ILCTVYAFKMR
B14: GSS_Y270_Y270H (peptide)
chain: YFRDGHMPRQY
B15: GSR_Y371 (peptide)
chain: NVKGIYAVGDV
B16: H6PD_Y449_R453Q_YF (peptide)
chain: SDFFAYSPVQE
B17: GRM3_Y480 (peptide)
chain: GGKYSYLKVGH
B18: GSTP1_Y109_A114V (peptide)
chain: YISLIYTNYEV
B19: GSR_Y158 (peptide)
chain: RLNAIYQNNLT
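Further: displayed peptides selected on beads carrying the immobilized SH2 domain, with library peptides lacking any tyrosine serving as negative controls.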

The first assay addresses SHP2 C-SH2 domain E139D. Nature of the assay: enrichment score (SH2-bound / input frequency) (ratio); bacterial display of known human phosphotyrosine sites (pTyr-Var adds point mutants) read by sequencing; higher = stronger binding; tyrosines were phosphorylated by kinases first. The note with it: peptide library: pTyr-Var.
Consider B1, for which the enrichment score was inactive: 0.845.
On the same count and under the same terms, the result for B2 reads inactive: 0.868; that for B3, inactive: 1.12.
On the same count and under the same terms, the result for B4 reads inactive: 0.888; that for B5, inactive: 1.27; that for B6, inactive: 0.981.
Same read-out and setting: then B7, with inactive: 0.736.
As for B8, the enrichment score was inactive: 0.965.
As for B9, the enrichment score is inactive: 0.921.
With B10, the enrichment score is inactive: 1.47.
Regarding B11, the enrichment score is inactive: 1.39.
On the same count and under the same terms, then B12, with inactive: 0.659; and B13, with inactive: 1.47.
Consider B14, for which the enrichment score is inactive: 0.578.
Still for that read-out and setting: then B15, with inactive: 0.845; and B16, with inactive: 1.07.
The same measure, in the same setting: then B17, with inactive: 0.997.
On the same count and under the same terms, then B18, with inactive: 2.69; and B19, with inactive: 1.04.

The next assay deals with SHP2 C-SH2 domain wild-type. The assay is described as above. The note with it: peptide library: pTyr-Var.
For the molecule B1, the enrichment score was inactive: 0.887.
B2: the enrichment score is inactive: 0.821.
Still for that read-out and setting: the result for B3 reads inactive: 0.981; that for B4, inactive: 1.07.
The same measure, in the same setting: the result for B5 reads inactive: 1.21; that for B6, inactive: 0.93; that for B7, inactive: 0.749.
The same measure, in the same setting: the result for B8 reads inactive: 0.622; that for B9, inactive: 1.13; that for B10, inactive: 0.976.
Turning to B11, the enrichment score is inactive: 1.01.
As for B12, the enrichment score was inactive: 0.395.
On to B13, for which the enrichment score is inactive: 1.53.
On the same count and under the same terms, the result for B14 reads inactive: 0.485.
Regarding B15, the enrichment score is inactive: 0.81.
On the same count and under the same terms, then B16, with inactive: 1.3.
Same read-out and setting: then B17, with inactive: 1.05; and B18, with inactive: 2.73.
On the same count and under the same terms, the result for B19 reads inactive: 0.947.

The next assay deals with SHP2 N-SH2 domain L43F. The assay is described as above. The note with it: peptide library: pTyr-Var.
Turning to B1, the enrichment score was inactive: 0.918.
Same read-out and setting: then B2, with inactive: 0.764; and B3, with inactive: 0.898.
The same measure, in the same setting: the result for B4 reads inactive: 0.797; that for B5, inactive: 1.4; that for B6, inactive: 0.827.
B7: the enrichment score is inactive: 0.957.
Turning to B8, the enrichment score is inactive: 0.903.
Take B9: the enrichment score is inactive: 0.798.
Turning to B10, the enrichment score is inactive: 1.1.
With B11, the enrichment score was inactive: 1.21.
For B12, the enrichment score was inactive: 0.493.
On the same count and under the same terms, the result for B13 reads inactive: 1.08.
For B14, the enrichment score was inactive: 0.659.
With B15, the enrichment score is inactive: 0.798.
Take B16: the enrichment score is inactive: 0.821.
Still for that read-out and setting: the result for B17 reads inactive: 1.13.
B18: the enrichment score is active: 4.13.
Same read-out and setting: the result for B19 reads inactive: 1.1.

Another assay addresses SHP2 N-SH2 domain T42A. Described as above. The note with it: peptide library: pTyr-Var.
For B1, the enrichment score is inactive: 0.832.
Still for that read-out and setting: the result for B2 reads inactive: 0.713; that for B3, inactive: 2.6.
The same measure, in the same setting: then B4, with inactive: 0.698; and B5, with active: 3.5.
Still for that read-out and setting: the result for B6 reads inactive: 0.609; that for B7, inactive: 0.704.
As for B8, the enrichment score was inactive: 0.696.
Take B9: the enrichment score was inactive: 0.65.
For the molecule B10, the enrichment score was inactive: 1.11.
On the same count and under the same terms, then B11, with inactive: 1.52; and B12, with inactive: 0.529.
In the case of B13, the enrichment score was inactive: 1.21.
As to B14, the enrichment score is inactive: 0.661.
With B15, the enrichment score was inactive: 0.65.
Regarding B16, the enrichment score was inactive: 0.897.
Same read-out and setting: then B17, with inactive: 1.02.
Same read-out and setting: the result for B18 reads active: 5.7.
For the molecule B19, the enrichment score is inactive: 0.82.

In a further assay the target is SHP2 N-SH2 domain T52S. The description is as above. To be noted: peptide library: pTyr-Var.
B1: the enrichment score is inactive: 0.797.
As for B2, the enrichment score is inactive: 0.76.
Turning to B3, the enrichment score was inactive: 0.989.
The same measure, in the same setting: then B4, with inactive: 0.888; and B5, with inactive: 1.34.
On the same count and under the same terms, the result for B6 reads inactive: 0.942.
Same read-out and setting: the result for B7 reads inactive: 0.864; that for B8, inactive: 0.952; that for B9, inactive: 0.875.
For the molecule B10, the enrichment score was inactive: 1.19.
Still for that read-out and setting: then B11, with inactive: 1.45; and B12, with inactive: 0.437.
The same measure, in the same setting: the result for B13 reads inactive: 1.35.
With B14, the enrichment score was inactive: 0.485.
Same read-out and setting: the result for B15 reads inactive: 0.809; that for B16, inactive: 1.04.
On the same count and under the same terms, then B17, with inactive: 0.935.
Still for that read-out and setting: then B18, with active: 4.96.
On to B19, for which the enrichment score was inactive: 1.07.

Another assay addresses SHP2 N-SH2 domain wild-type. Described as above. To be noted: peptide library: pTyr-Var.
As to B1, the enrichment score was inactive: 0.871.
The same measure, in the same setting: the result for B2 reads inactive: 1.05; that for B3, inactive: 1.07; that for B4, inactive: 0.757.
Regarding B5, the enrichment score was inactive: 0.961.
Consider B6, for which the enrichment score is inactive: 0.757.
For the molecule B7, the enrichment score was inactive: 0.724.
As to B8, the enrichment score was inactive: 1.04.
As to B9, the enrichment score is inactive: 0.793.
As for B10, the enrichment score was inactive: 1.46.
On the same count and under the same terms, the result for B11 reads inactive: 1.32.
Same read-out and setting: then B12, with inactive: 0.56; and B13, with inactive: 1.09; and B14, with inactive: 0.662.
B15: the enrichment score was inactive: 0.965.
On the same count and under the same terms, then B16, with inactive: 0.791; and B17, with inactive: 1.06.
On the same count and under the same terms, then B18, with inactive: 2.52.
With B19, the enrichment score was inactive: 0.865.
